Results as given in PubChem BioAssay AID651820 (National Center for Advancing Translational Sciences (NCATS), 2012).
Screen size: about 340,000 compounds; about 12,000 (3.5%) were called active. Inconclusive means that the source gave no clear call. Such entries were picked first, then a sample of the others. Calls follow the shape of the dose curve; as a rule, active = well fitted inhibition curve with a large enough effect; inconclusive = small, poorly fitted or top-dose-only effect, or another doubt; inactive = no such curve, though single readings can be large or run the other way. Potencies of inconclusive entries are left out as doubtful fits.

assay: qHTS Assay for Inhibitors of Hepatitis C Virus (HCV); conditions: Huh7.5.1 HCVcc-Cre (HCVcc is cell-culture hepatitis C virus) infection, luciferase reporter, 44 h; activity change, negative = inhibition: at 41.8 µM (top of the series) unless noted
Procedure, shortened: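 Antiviral activity was scored by luciferase reporter output from cells infected with HCVcc-Cre (~0.5 moi) in presence of compound, 44 h infection period, cells seeded 1,000/well 4 h prior.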
% is scaled to controls: 0 for no effect and ±100 for the full control effect; potency is read from the fitted curve at half-maximal effect; tags tell the direction and shape of the fitted curve.

Q: With `O=C(Nc1ccncc1)c1cccn(Cc2ccccc2)c1=O` as the compound, how does the Potency read?
A: active: 8.91 µM

Q: For `Cc1cccc(NC(=O)CSc2nc3ccccc3o2)c1`, which Potency is on record?
A: inactive

Q: For `Cc1cnc(NC(=O)COc2cccc3c2OC(C)(C)C3)s1`, which Potency is on record?
A: inconclusive [inhibitor, single point]

Q: Which Potency does the source give for `CCc1nnc(NC(=O)CC(CN(C)S(=O)(=O)c2ccccc2)c2ccccc2)s1` (stereo unspecified) here?
A: inconclusive [inhibitor, single point]

Q: Which Potency does the source give for `CCc1c(C)nc2c(C#N)c(C)[nH]n2c1=O` here?
A: inactive

Q: Which Potency does the source give for `COc1ccc(N2CCN(c3oc(Cc4ccccc4)nc3C#N)CC2)cc1` here?
A: inactive

Q: With `O=C(Cc1ccccc1)Nc1cc([N+](=O)[O-])ccc1N1CCOCC1` as the compound, how does the Potency read?
A: inconclusive [inhibitor, single point]

Q: With `CCN1C(=NCCOC)N[C@@H](c2cccc(C(F)(F)F)c2)C(C(=O)OC)=C1C` as the compound, how does the Potency read?
A: inconclusive [inhibitor, single point]

Q: With `CC1OC(OC2C(O)CC(OC3C(O)CC(OC4CCC5(C)C(CCC6C5CCC5(C)C(C7=CC(=O)OC7)C(O)CC65O)C4)OC3C)OC2C)CC(O)C1O` (stereo unspecified) as the compound, how does the Potency read?
A: inconclusive [inhibitor, full curve]

Q: With `CC1CCN(CC(=O)Nc2cccc(C(=O)Nc3cccc(C(F)(F)F)c3)c2)CC1` as the compound, how does the Potency read?
A: active: 22.4 µM

Q: With `C/C(=N/NC(=O)c1ccc(Br)o1)c1cccc(NC(=O)c2ccc(F)cc2)c1` as the compound, how does the Potency read?
A: inconclusive [inhibitor, single point]

Q: Which Potency does the source give for `CCN(c1ccccc1)S(=O)(=O)c1ccc(C(=O)N(C)Cc2cccs2)cc1` here?
A: inconclusive [inhibitor, partial curve]

Q: For `Cc1ccccc1/C=N/Nc1ncnc2nc[nH]c12`, which Potency is on record?
A: inactive

Q: Which Potency does the source give for `Cc1c(C(=O)Nc2nnc(C3CC3)s2)oc2c(Cl)cccc12` here?
A: inconclusive [inhibitor, single point]

Q: Which activity change, negative = inhibition does the source give for `Cc1ccc(C(C[N+](=O)[O-])Sc2ccc(N)cc2)cc1` (stereo unspecified) here?
A: inconclusive: -42.1% [inhibitor]

Q: Which Potency does the source give for `CCCCN(CC(=O)Nc1cccc(S(=O)(=O)N2CCCC2)c1)Cc1nc2ccccc2c(=O)[nH]1` here?
A: inconclusive [inhibitor, single point]

Q: Which Potency does the source give for `O=C(/C=C/c1ccc(Cl)cc1)NCc1ccco1` here?
A: inactive

Q: With `O=C(COc1cccc2ccccc12)NNC(=O)c1cnccn1` as the compound, how does the Potency read?
A: inactive

Q: For `OC1(Cc2cc(-c3ccccc3)no2)CCN(CCCc2ccccc2)CC1`, which Potency is on record?
A: inactive

Q: With `COc1ccc(C2C(C#N)=C(N)OC3=C2C(=O)CC(C)(C)C3)cc1Cn1nc(C)c([N+](=O)[O-])c1C` (stereo unspecified) as the compound, how does the Potency read?
A: inconclusive [inhibitor, full curve, poor fit]

Q: For `Cc1nn(-c2ccc(F)cc2F)c2c1-c1nc(N3CCCC3)ncc1CC2`, which Potency is on record?
A: inconclusive [inhibitor, partial curve]

Q: For `CC1C/C(=N/NC(=O)c2cccc(F)c2)c2ccc(O)cc2C1` (stereo unspecified), which Potency is on record?
A: inconclusive [inhibitor, full curve]

Q: With `O=C(COc1ccccc1)N/N=C/c1ccc(O[C@@H]2O[C@H](CO)[C@@H](O)[C@H](O)[C@H]2O)cc1` as the compound, how does the Potency read?
A: inactive

Q: For `CC1CCCN(CC(O)COc2ccc(-c3ccccc3)cc2)C1` (stereo unspecified), which Potency is on record?
A: active: 2.82 µM

Q: Which Potency does the source give for `CCCCCC/C=N/Nc1nnc(Cc2ccc(OC)c(OC)c2)c(=O)[nH]1` here?
A: inactive

Q: Which Potency does the source give for `COc1cccc(C(=O)/C=C/Nc2ccc(NC(C)=O)cc2)c1` here?
A: inactive

Q: Which Potency does the source give for `O=C(CN(Cc1ccccc1)C1=NCCS1)c1ccc(Cl)cc1` here?
A: active: 6.31 µM

Q: Which Potency does the source give for `O=C(/C=C/c1ccco1)Nc1cccnc1Cl` here?
A: inactive

Q: With `CCCN1Cc2cccc(C(=O)NCc3ccc4c(c3)OCO4)c2C1=O` as the compound, how does the Potency read?
A: inconclusive [inhibitor, single point]

Q: Which Potency does the source give for `COc1ccc(C(=O)/C=C/c2ccc(OC(=O)c3cc(OC)c(OC)c(OC)c3)cc2)cc1` here?
A: inconclusive [inhibitor, full curve, poor fit]

Q: For `Nc1nonc1-c1noc(CCCN2C(=O)c3ccccc3C2=O)n1`, which Potency is on record?
A: inactive

Q: Which Potency does the source give for `CC(C)(C)OC(=O)N(CCc1ccccc1)Cc1ccc(OCc2cccc(NC(=O)C3CCC3)c2)cc1` here?
A: inconclusive [inhibitor, partial curve]

Q: With `O=C(O)C(c1ccccc1)N1C(=O)c2ccccc2C1=O` (stereo unspecified) as the compound, how does the Potency read?
A: inactive

Q: Which Potency does the source give for `C=CCc1cc(/C=C/c2nc(O)c([N+](=O)[O-])c(=O)[nH]2)cc(OC)c1O` here?
A: inactive

Q: With `Cc1cc2c(c(N)n1)c(=O)oc1ccccc12` as the compound, how does the Potency read?
A: inconclusive [inhibitor, full curve, poor fit]

Q: With `COc1ccc(-c2sc3ccccc3c2-c2ccc(O)cc2)cc1` as the compound, how does the Potency read?
A: inconclusive [inhibitor, single point]

Q: For `COc1ccc(NC(=O)CSc2ccc3c4c(cccc24)C(=O)c2ccccc2-3)cc1`, which Potency is on record?
A: inconclusive [inhibitor, partial curve, poor fit]

Q: With `O=C(CSc1nnnn1Cc1ccccc1)c1ccc(F)cc1` as the compound, how does the Potency read?
A: inactive

Q: For `CCC(C)n1c(/C=C/c2ccccc2)nc2ccccc21` (stereo unspecified), which Potency is on record?
A: inconclusive [inhibitor, single point]

Q: Which Potency does the source give for `COc1ccc(C(=O)C2CCN(C(=O)c3ccc(F)cc3)CC2)cc1` here?
A: active: 25.1 µM

Q: With `COCCCNC(=S)NNC(=O)c1ccccc1Br` as the compound, how does the Potency read?
A: inactive

Q: Which Potency does the source give for `CC(=O)Nc1cccc(OCC(O)Cn2cnc3ccccc32)c1` (stereo unspecified) here?
A: inactive

Q: With `c1ccc(CNc2ncnc3nc[nH]c23)nc1` as the compound, how does the Potency read?
A: inactive

Q: With `O=[N+]([O-])c1ccc(Oc2ccc(C(F)(F)F)cn2)cc1` as the compound, how does the Potency read?
A: inactive

Q: Which Potency does the source give for `O=C(CSC1=Nc2ccccc2C2CC=NN12)Nc1ccc2c(c1)OCO2` (stereo unspecified) here?
A: inconclusive [inhibitor, single point]

Q: For `CN(C)S(=O)(=O)c1cccc(C(=O)Nc2cc(Cl)ccc2O)c1`, which Potency is on record?
A: inconclusive [inhibitor, single point]

Q: For `CC(C)(Oc1ccc(Cl)cc1)C(=O)NCC(c1ccco1)N1CCCCC1` (stereo unspecified), which Potency is on record?
A: inconclusive [inhibitor, partial curve, poor fit]

Q: Which Potency does the source give for `N#CC1=C(Nc2ccccc2)SC=C(c2ccc(Br)cc2)N=C1N1CCOCC1` here?
A: inconclusive [inhibitor, single point]

Q: For `CC(C)(C)OC(=O)N1CCC(c2c(C(=O)NCC3CCN(C4CCCC4)C3)cnn2-c2cccc(Cl)c2)CC1` (stereo unspecified), which Potency is on record?
A: inconclusive [inhibitor, single point]

Q: For `O=C(O)CCC(=O)N1CCC(C(=O)c2cccc(Cl)c2)CC1`, which Potency is on record?
A: inconclusive [inhibitor, single point]

Q: For `O=C(NCc1ccco1)c1cccnc1-c1nc2ccccc2s1`, which Potency is on record?
A: inconclusive [inhibitor, single point]

Q: With `Cc1c(Br)c([N+](=O)[O-])nn1CC(=O)Nc1ccc2nc3n(c(=O)c2c1)CCCC3` as the compound, how does the Potency read?
A: inactive

Q: Which Potency does the source give for `CNC(=S)N1N=C(c2ccc(C)cc2)CC1c1ccc(Cl)cc1` (stereo unspecified) here?
A: inconclusive [inhibitor, single point]

Q: For `COc1ccc(-c2nnn(Cc3nc(N)nc(N4CCCCC4)n3)n2)cc1`, which Potency is on record?
A: inconclusive [inhibitor, partial curve]

Q: For `Cc1c(NC(=O)C2CCCN2S(=O)(=O)c2ccccc2)c(=O)n(-c2ccccc2)n1C` (stereo unspecified), which Potency is on record?
A: inactive

Q: For `CCCN(CCC)CCCNC(=S)Nc1ccc2nc3n(c(=O)c2c1)CCCCC3`, which Potency is on record?
A: inconclusive [inhibitor, single point]

Q: Which Potency does the source give for `CCOc1ccc(CCNC(=O)c2ccc3ccccc3n2)cc1OCC` here?
A: active: 11.2 µM

Q: With `CCOC(=O)N1CCN(c2nc3ccccc3nc2C(C#N)C(=O)NCCc2ccccc2)CC1` (stereo unspecified) as the compound, how does the Potency read?
A: inactive

Q: Which Potency does the source give for `Nc1cc(S(=O)(=O)C(F)(F)F)ccc1C(=O)O` here?
A: inactive

Q: Which Potency does the source give for `N=c1n(CCN2CCCCC2)c2ccccc2n1CC(O)c1cccc(Br)c1` (stereo unspecified) here?
A: active: 12.6 µM

Q: Which Potency does the source give for `CCOC(=O)c1cnc2ccc(OCC)cc2c1N1CCN(c2ccccc2OC)CC1` here?
A: inconclusive [inhibitor, single point]

Q: Which Potency does the source give for `O=C(N/N=C/c1ccc(O)cc1)c1ccc(COc2cc(Cl)ccc2Cl)o1` here?
A: inconclusive [inhibitor, single point]

Q: With `CC(=O)NC1=NN(C(C)=O)C(c2cccc([N+](=O)[O-])c2)S1` (stereo unspecified) as the compound, how does the Potency read?
A: inactive

Q: For `CCN1C(=O)N(C(C)=O)C2C1N(C(C)=O)C(=O)N2C(C)=O` (stereo unspecified), which Potency is on record?
A: inactive

Q: With `C=Cn1c(P(=S)(N2CCOCC2)N2CCOCC2)cc2c1CCCC2` as the compound, how does the Potency read?
A: inconclusive [inhibitor, partial curve]

Q: With `CC1(C)CSC(=NCCc2ccccc2)N1C(=O)c1ccc(C#N)cc1` as the compound, how does the Potency read?
A: inactive

Q: For `CC(=O)Nc1cc(Br)ccc1O`, which Potency is on record?
A: inactive

Q: With `CCOC(=O)N1CCC(NC(=O)C2CCCN(S(=O)(=O)c3cccc4nsnc34)C2)CC1` (stereo unspecified) as the compound, how does the Potency read?
A: inactive

Q: Which Potency does the source give for `COc1cc(C(=O)c2ccccc2)c([N+](=O)[O-])cc1OC` here?
A: inconclusive [inhibitor, single point]

Q: Which Potency does the source give for `Cc1nc2ccccc2c(=O)n1/N=C/c1ccccc1Cl` here?
A: inactive

Q: Which Potency does the source give for `CC1(C)CC(=O)C2=C(C1)Oc1ncn(Cc3ccco3)c(=N)c1C2c1ccccc1` (stereo unspecified) here?
A: inconclusive [inhibitor, partial curve]

Q: For `COc1c(C)cccc1C(=O)Nc1ccc(N2CCN(C(=O)c3ccccc3C)CC2)cc1`, which Potency is on record?
A: active: 7.94 µM

Q: With `Cc1ccc(OCC(O)Cn2c(=N)n(CCN3CCCCC3)c3ccccc32)cc1` (stereo unspecified) as the compound, how does the Potency read?
A: active: 2.51 µM

Q: With `CCOc1ccc(NC(=O)/C(C=Nc2ccccc2)=C(\C)O)cc1` as the compound, how does the Potency read?
A: inactive

Q: With `CCc1noc(C)c1C(=O)NCCN1C(=O)S/C(=C\c2ccc(OC)cc2)C1=O` as the compound, how does the Potency read?
A: inconclusive [inhibitor, partial curve, poor fit]

Q: Which Potency does the source give for `COc1cc(CNCCc2ccccc2F)ccc1OCc1ccc(Cl)nc1` here?
A: inconclusive [inhibitor, single point]
